{"source": "the supplement of paper PMC4166925", "note": "± gives the standard deviation of the averaged measurements. Over roughly 33,000 sequences, “E-score (dimensionless, -0.5 to 0.5)” has its median near -0.046; the highest 2% begin near 0.36. Some of the results follow.", "data": [{"tested_on": "T1, SpTbr T-box DNA-binding domain (GST fusion)", "T1 sequence": "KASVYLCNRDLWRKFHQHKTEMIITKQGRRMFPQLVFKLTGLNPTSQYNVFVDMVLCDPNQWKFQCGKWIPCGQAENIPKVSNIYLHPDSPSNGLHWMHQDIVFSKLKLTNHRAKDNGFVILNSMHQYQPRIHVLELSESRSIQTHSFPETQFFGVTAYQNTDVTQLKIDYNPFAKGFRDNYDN", "experiment": "PBM E-score of 8-mer (E-score (dimensionless, -0.5 to 0.5)); Tbr is Tbrain of the sea star Patiria miniata (Pm) or the sea urchin Strongylocentrotus purpuratus (Sp); higher = stronger binding preference; most listed sequences are background and not binding sites", "settings": "the construct has about 5 more residues each side", "how_it_was_run": "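Using the Universal PBM Analysis Suite, every ungapped 8-mer received an enrichment E-score averaged over duplicate arrays. Probe intensities came from double-stranded Universal Agilent oligonucleotide arrays incubated with 200 nM GST-fused Tbr T-box DNA-binding domain in PBS (pH 7.5). That protein was expressed in BL21 E. coli at 20 °C and purified by glutathione affinity chromatography.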", "values": [{"sequence": "AGCTTAGC", "PBM E-score of 8-mer": "-0.0471 ± 0.037"}, {"sequence": "AAAGCTGA", "PBM E-score of 8-mer": "-0.117 ± 0.019"}, {"sequence": "AGGTTTCC", "PBM E-score of 8-mer": "-0.0693 ± 0.076"}, {"sequence": "AGAGGAAC", "PBM E-score of 8-mer": "-0.243 ± 0.061"}, {"sequence": "CTCCTCCA", "PBM E-score of 8-mer": "-0.0939 ± 0.0056"}, {"sequence": "ATGAATAG", "PBM E-score of 8-mer": "-0.127 ± 0.097"}, {"sequence": "AGCGTTAG", "PBM E-score of 8-mer": "0.183 ± 0.013"}, {"sequence": "CCCTTAGG", "PBM E-score of 8-mer": "0.00499 ± 0.015"}, {"sequence": "GTGAAAAA", "PBM E-score of 8-mer": "0.251 ± 0.11"}, {"sequence": "ATGAACAG", "PBM E-score of 8-mer": "-0.0836 ± 0.0021"}, {"sequence": "CAGGCGTC", "PBM E-score of 8-mer": "0.236 ± 0.056"}, {"sequence": "ACTGACAG", "PBM E-score of 8-mer": "0.2 ± 0.019"}, {"sequence": "AGGCTGAC", "PBM E-score of 8-mer": "0.125 ± 0.048"}, {"sequence": "CCATAATC", "PBM E-score of 8-mer": "-0.227 ± 0.0037"}, {"sequence": "ATGCCGTG", "PBM E-score of 8-mer": "-0.0977 ± 0.023"}, {"sequence": "AAGCTAGC", "PBM E-score of 8-mer": "-0.0122 ± 0.052"}, {"sequence": "CAGAGAAG", "PBM E-score of 8-mer": "-0.171 ± 0.056"}, {"sequence": "GGAATAGA", "PBM E-score of 8-mer": "-0.3 ± 0.043"}, {"sequence": "GAAGTTGA", "PBM E-score of 8-mer": "-0.00496 ± 0.067"}, {"sequence": "AAGGGTAT", "PBM E-score of 8-mer": "-0.121 ± 0.02"}, {"sequence": "CGACCGAA", "PBM E-score of 8-mer": "-0.181 ± 0.0099"}, {"sequence": "AGATCTAA", "PBM E-score of 8-mer": "-0.0823 ± 0.041"}, {"sequence": "AGAGTGCG", "PBM E-score of 8-mer": "0.221 ± 0.059"}, {"sequence": "GCCCGTAA", "PBM E-score of 8-mer": "-0.147 ± 0.041"}, {"sequence": "CGAACTGA", "PBM E-score of 8-mer": "0.0992 ± 0.0011"}, {"sequence": "CGCCACTA", "PBM E-score of 8-mer": "0.236 ± 0.011"}, {"sequence": "CGGAGACG", "PBM E-score of 8-mer": "-0.123 ± 0.06"}, {"sequence": "TCCACAGA", "PBM E-score of 8-mer": "-0.0271 ± 0.068"}, {"sequence": "GAACTCCA", "PBM E-score of 8-mer": "0.0452 ± 0.029"}, {"sequence": "CGCCTAAG", "PBM E-score of 8-mer": "0.0124 ± 0.024"}, {"sequence": "ATCGTGCG", "PBM E-score of 8-mer": "0.166 ± 0.0071"}, {"sequence": "CCAAGTCG", "PBM E-score of 8-mer": "0.122 ± 0.021"}, {"sequence": "GCAGATAA", "PBM E-score of 8-mer": "-0.0315 ± 0.053"}, {"sequence": "AATTATGA", "PBM E-score of 8-mer": "-0.182 ± 0.02"}, {"sequence": "AGCTTACG", "PBM E-score of 8-mer": "-0.159 ± 0.075"}, {"sequence": "CCCACCTC", "PBM E-score of 8-mer": "0.251 ± 0.043"}, {"sequence": "GAGACAGC", "PBM E-score of 8-mer": "0.0769 ± 0.072"}, {"sequence": "AATGCTGA", "PBM E-score of 8-mer": "-0.099 ± 0.042"}, {"sequence": "GCCGCTGA", "PBM E-score of 8-mer": "-0.107 ± 0.061"}, {"sequence": "GACCCTCA", "PBM E-score of 8-mer": "-0.114 ± 0.075"}, {"sequence": "GTATAAGA", "PBM E-score of 8-mer": "-0.132 ± 0.052"}, {"sequence": "CGAAGTCC", "PBM E-score of 8-mer": "0.0736 ± 0.012"}, {"sequence": "ATATACGC", "PBM E-score of 8-mer": "-0.0844 ± 0.021"}, {"sequence": "TGCCCGCA", "PBM E-score of 8-mer": "-0.0405 ± 0.051"}, {"sequence": "ATTCTCTG", "PBM E-score of 8-mer": "-0.29 ± 0.048"}, {"sequence": "GAGCTATA", "PBM E-score of 8-mer": "-0.0433 ± 0.055"}, {"sequence": "AGTTATCA", "PBM E-score of 8-mer": "0.198 ± 0.009"}, {"sequence": "CGCCTCCG", "PBM E-score of 8-mer": "0.146 ± 0.02"}, {"sequence": "AGAACTAT", "PBM E-score of 8-mer": "-0.108 ± 0.058"}, {"sequence": "ACCCGAGC", "PBM E-score of 8-mer": "0.0518 ± 0.058"}, {"sequence": "TGTATCAA", "PBM E-score of 8-mer": "-0.0245 ± 0.011"}, {"sequence": "AGTGCTGG", "PBM E-score of 8-mer": "-0.102 ± 0.013"}, {"sequence": "GCCAGACA", "PBM E-score of 8-mer": "-0.0989 ± 0.049"}, {"sequence": "GGTGTCAC", "PBM E-score of 8-mer": "0.475 ± 0.0052"}, {"sequence": "CTACTGAC", "PBM E-score of 8-mer": "0.0451 ± 0.03"}, {"sequence": "ATACCGGG", "PBM E-score of 8-mer": "-0.103 ± 0.018"}, {"sequence": "ACAAACTG", "PBM E-score of 8-mer": "0.057 ± 0.034"}, {"sequence": "AGGCGAGG", "PBM E-score of 8-mer": "0.193 ± 0.0034"}, {"sequence": "CGGGAAGA", "PBM E-score of 8-mer": "-0.0538 ± 0.039"}, {"sequence": "ATGTTATC", "PBM E-score of 8-mer": "0.149 ± 0.0061"}, {"sequence": "AGGCAAAT", "PBM E-score of 8-mer": "-0.365 ± 0.017"}, {"sequence": "AAAAACAG", "PBM E-score of 8-mer": "-0.162 ± 0.053"}, {"sequence": "TCGACCCA", "PBM E-score of 8-mer": "-0.015 ± 0.054"}, {"sequence": "ATGCATGC", "PBM E-score of 8-mer": "-0.193 ± 0.14"}, {"sequence": "AACGGAAC", "PBM E-score of 8-mer": "-0.0893 ± 0.033"}, {"sequence": "AGCAATAA", "PBM E-score of 8-mer": "-0.179 ± 0.038"}, {"sequence": "GACTTGCA", "PBM E-score of 8-mer": "0.198 ± 0.0068"}, {"sequence": "AGATCGCT", "PBM E-score of 8-mer": "-0.05065 ± 0.00033"}, {"sequence": "ATTCAAAT", "PBM E-score of 8-mer": "-0.0886 ± 0.04"}, {"sequence": "CTCGCTAA", "PBM E-score of 8-mer": "0.232 ± 0.043"}, {"sequence": "AGTTGTAT", "PBM E-score of 8-mer": "-0.0278 ± 0.013"}, {"sequence": "ATTACGGG", "PBM E-score of 8-mer": "-0.168 ± 0.046"}, {"sequence": "GAGCGTTA", "PBM E-score of 8-mer": "0.1593 ± 0.0015"}, {"sequence": "ATTGGCAC", "PBM E-score of 8-mer": "0.322 ± 0.024"}, {"sequence": "GATACGGA", "PBM E-score of 8-mer": "0.0503 ± 0.043"}, {"sequence": "CTACGGAC", "PBM E-score of 8-mer": "-0.231 ± 0.045"}, {"sequence": "TAAGATCA", "PBM E-score of 8-mer": "-0.1842 ± 0.0016"}, {"sequence": "GCAAGCCA", "PBM E-score of 8-mer": "-0.168 ± 0.056"}, {"sequence": "GAATATGC", "PBM E-score of 8-mer": "-0.0698 ± 0.059"}, {"sequence": "AGACACCA", "PBM E-score of 8-mer": "0.251 ± 0.032"}, {"sequence": "ACCCCGCA", "PBM E-score of 8-mer": "0.106 ± 0.051"}, {"sequence": "CCTGTTGA", "PBM E-score of 8-mer": "0.116 ± 0.0097"}, {"sequence": "AGAGTACA", "PBM E-score of 8-mer": "-0.262 ± 0.074"}, {"sequence": "CCCCACTC", "PBM E-score of 8-mer": "-0.0512 ± 0.064"}, {"sequence": "AGCTGGCG", "PBM E-score of 8-mer": "0.0986 ± 0.012"}, {"sequence": "ACCTGCTC", "PBM E-score of 8-mer": "-0.0268 ± 0.017"}]}]}
